Some of the results follow. Sequences were assembled here from the parent chain. Inactive controls read about 0.05.
B1: TEV protease; numbered along this chain (parent)
chain: MGESLFKGPRDYNPISSSICHLTNESDGHTTSLYGIGFGPFIITNKHLFRRNNGTLVVQSLHGVFKVKDTTTLQQHLVDGRDMIIIRMPKDFPPFPQKLKFREPQREERICLVTTNFQTKSMSSMVSDTSCTFPSGDGIFWKHWIQTKDGQCGSPLVSTRDGFIVGIHSASNFTNTNNYFTSVPKNFMELLTNQEAQQWVSGWRLNADSVLWGGHKVFMVKPEEPFQPVKEATQL

Variants of: B1
Experiment: raw area under fraction-flipped curve 0-4 h after induction (AUC4h, not background-subtracted), DNA-recorder readout of cleavage of the substrate (dimensionless); higher = more cleavage of the substrate by the protease variant
Settings: temperature: 34 °C; time window: 0-4 h after rhamnose induction
Procedure: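 In vivo DNA recorder in E. coli TOP10(DE3) ΔrhaA at 34 °C. Each TEVp single-site mutant (parent TEVp 0) is paired with a single-site variant of the 7-mer TEVs (canonical ENLYFQ|S). The substrate sits between flexible linkers in a Bxb1-sfGFP-TEVs-SsrA fusion, so cleavage stabilises Bxb1 and speeds flipping of a recombination array, read by NGS. The value is the raw area under the fraction-flipped curve over 0-4 h after rhamnose induction (AUC4h), with ≥20 reads per time point. It is not background-subtracted; inactive controls average about 0.047.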
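Further: Bxb1 expression induced with 0.2% (w/v) L-rhamnose at OD600 near 0.5, cultures sampled hourly, flipped fraction per protease–substrate barcode pair counted by paired-end Illumina sequencing.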

Row | Variant | area with substrate ENLAFQS | area with substrate ENLFFQS | area with substrate ENLKFQS | area with substrate ENLLFQS | area with substrate ENLMFQS | area with substrate ENLRFQS | area with substrate ENLDFQS | area with substrate ENLNFQS | area with substrate ENLQFQS | area with substrate ENLVFQS | area with substrate ENLCFQS | area with substrate ENLPFQS | area with substrate ENLSFQS | area with substrate ENLEFQS | area with substrate ENLHFQS | area with substrate ENLWFQS | area with substrate ENLGFQS | area with substrate ENLIFQS | area with substrate ENLTFQS
1 | F6E | 0.0531 | 0.0856 | 0.0671 | 0.0884 | 0.0716 | 0.0551 | – | – | – | – | – | – | – | – | – | – | – | – | –
2 | F6C | 0.0835 | – | – | – | – | – | 0.056 | 0.058 | 0.068 | 0.0709 | – | – | – | – | – | – | – | – | –
3 | R81Q | 0.0582 | 0.0732 | – | 0.0715 | – | – | 0.0774 | 0.0699 | – | – | 0.0369 | 0.0647 | 0.0468 | – | – | – | – | – | –
4 | I84K | 0.0595 | – | 0.0649 | – | 0.0519 | 0.0646 | 0.0652 | – | – | – | – | 0.0599 | – | 0.064 | 0.0613 | 0.0618 | – | – | –
5 | I84Y | 0.0331 | 0.0671 | 0.0587 | – | – | 0.0628 | 0.0694 | 0.0609 | 0.0532 | – | 0.0554 | 0.0527 | – | 0.0566 | 0.0504 | 0.0633 | – | – | –
6 | I84L | 0.0691 | 0.116 | – | – | – | 0.0777 | 0.0619 | 0.0619 | – | – | 0.0502 | – | 0.0619 | 0.0383 | 0.0594 | 0.0661 | – | – | –
7 | F65K | 0.0632 | – | – | – | – | 0.0658 | – | 0.0669 | – | 0.0695 | – | – | 0.0604 | 0.116 | – | – | 0.0578 | – | –
8 | R10A | 0.0693 | 0.091 | 0.0645 | 0.0734 | – | 0.057 | 0.0851 | 0.0475 | – | – | 0.0771 | 0.0434 | 0.0548 | – | – | – | – | 0.0918 | –
9 | V57H | 0.0451 | 0.0704 | 0.0457 | 0.0802 | – | 0.0839 | 0.07 | 0.0576 | – | 0.101 | – | 0.0608 | 0.0581 | 0.071 | 0.0536 | – | – | 0.0421 | 0.0695
10 | V57F | 0.0774 | 0.0829 | 0.0794 | – | – | 0.0606 | – | 0.0663 | – | 0.0952 | – | 0.0497 | 0.0488 | – | 0.0381 | 0.0641 | 0.0804 | 0.0643 | –
11 | D27I | 0.0539 | 0.068 | 0.0626 | – | 0.0393 | 0.0643 | 0.0493 | – | – | – | – | 0.0547 | 0.063 | 0.0633 | 0.0641 | 0.0715 | 0.0617 | 0.0657 | –
12 | D82T | 0.0552 | 0.0432 | 0.0543 | 0.0638 | – | 0.0503 | 0.0646 | 0.0467 | – | 0.045 | – | 0.0713 | 0.0833 | 0.0628 | 0.0542 | 0.0557 | – | 0.0433 | 0.0434
13 | T72M | 0.0821 | 0.0839 | – | 0.0502 | – | – | 0.0884 | 0.0456 | – | – | – | – | 0.0709 | – | 0.0526 | 0.0783 | – | 0.0253 | –
14 | E3K | 0.0703 | 0.101 | – | – | – | 0.0802 | – | 0.0676 | – | 0.068 | 0.0795 | 0.0444 | – | – | – | – | – | 0.109 | –
15 | G8H | 0.0769 | – | – | – | 0.0773 | – | – | – | – | – | – | 0.0665 | 0.0316 | – | – | – | – | 0.0857 | 0.0647
16 | F41Y | 0.0529 | 0.0702 | 0.0711 | 0.0779 | – | 0.085 | 0.0697 | 0.0662 | 0.0726 | 0.0789 | 0.0836 | 0.0587 | 0.0453 | 0.0614 | – | – | – | 0.0821 | 0.0548
17 | F41E | 0.0645 | 0.0472 | 0.0489 | – | – | – | 0.0565 | 0.0613 | 0.0786 | – | 0.0464 | 0.0626 | 0.0418 | – | 0.0988 | 0.0425 | – | – | –

— the supplement of paper PMC12217912
